Test results from PubChem BioAssay AID624417 (National Center for Advancing Translational Sciences (NCATS), 2012).
Out of some 410,000 compounds screened, about 6,400 (1.6%) were called active. The shares of active, inactive and inconclusive entries below differ from those in the screen. Calls follow the shape of the dose curve; as a rule, active = well fitted inhibition curve with a large enough effect; inconclusive = small, poorly fitted or top-dose-only effect; inactive = no such curve, though single readings can be large or run the other way. No potency is given beside an inconclusive call; the fits are too rough.
% is scaled to controls: 0 for no effect and ±100 for the full control effect; potency is read from the fitted curve at half-maximal effect; tags tell the direction and shape of the fitted curve.
Also: nearly all actives have a fitted effect of over 55% in size.

The compounds below were run against Glucagon-like peptide 1 receptor (Homo sapiens) (UniProt P43220) (assay: qHTS of GLP-1 Receptor Inverse Agonists (Inhibition Mode)). Settings: HEK293 GLP-1R CRE-luciferase, luminescence, 24 h, GLP-1R form is constitutively active; activity change, negative = inhibition: at 38.3 µM (top of the series) unless noted.
Sequence of UniProt P43220 (P43220 whole entry, looked up): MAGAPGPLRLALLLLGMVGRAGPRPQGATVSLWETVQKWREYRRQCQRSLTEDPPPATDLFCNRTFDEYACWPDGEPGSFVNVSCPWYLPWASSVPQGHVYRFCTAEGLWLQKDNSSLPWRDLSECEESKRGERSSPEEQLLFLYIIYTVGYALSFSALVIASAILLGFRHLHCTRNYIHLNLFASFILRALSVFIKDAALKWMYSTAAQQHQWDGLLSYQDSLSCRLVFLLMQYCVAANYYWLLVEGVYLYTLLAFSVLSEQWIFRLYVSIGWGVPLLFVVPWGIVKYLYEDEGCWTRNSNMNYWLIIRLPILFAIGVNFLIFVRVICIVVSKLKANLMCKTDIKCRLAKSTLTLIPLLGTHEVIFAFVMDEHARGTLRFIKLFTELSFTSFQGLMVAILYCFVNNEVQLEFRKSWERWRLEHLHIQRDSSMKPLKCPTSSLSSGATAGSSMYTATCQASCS
Method in brief: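 Stable HEK293 clone (constitutively active GLP-1R + cAMP-response luciferase); 200 cells/uL plated, 12 h pre-culture, compound 24 hr, 37 deg C/5% CO2; detection reagent 12 min RT; luminescence.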
`O=S(=O)(c1ccccc1)c1nc(-c2cccs2)oc1NCC1CCCO1` (stereo not given) was tested, and the “activity change, negative = inhibition” value was inactive: -14.9%.
In the case of `CCCCc1nc(SCCOC)c2c(=O)n(C)c(=O)n(C)c2n1`, the Potency is reported as inconclusive [inhibitor, full curve].
With `Brc1ccc(CSc2nnc(-c3ccccn3)n2Cc2ccco2)cc1` the Potency was inconclusive [inhibitor, partial curve, poor fit].
For `CCOc1ccc(Br)cc1S(=O)(=O)Nc1ccc(C(=O)Nc2ccccc2OC)cc1`, the Potency was inconclusive [inhibitor, partial curve, poor fit].
In the case of `CC(C)(C)c1cc(NC(=O)c2ccco2)no1`, the Potency is reported as inconclusive [inhibitor, single point].
For `CN(C)c1ccc(/C=C/c2nc3ccccc3c(=O)n2CCO)cc1`, the Potency was inconclusive [inhibitor, partial curve].
`c1coc(CNc2ncnc3sc4c(c23)CCCCC4)c1` was tested, and the Potency was inconclusive [inhibitor, partial curve, poor fit].
With `CCn1nc(C(=O)Nc2ccc(S(=O)(=O)Nc3ncccn3)cc2)c2ccccc2c1=O` the “activity change, negative = inhibition” value was inactive: 4.24%.
`O=C(NCc1ccccc1)c1cccc(COc2cccc(Cl)c2)c1` was tested, and the Potency was active: 7.94 µM.
`Cc1ccccc1CNc1nc(N(C)C)nc2c1cnn2C` was tested, and the Potency was inconclusive [inhibitor, single point].
For `Cc1cccc(C(=O)NC2CC3CCC(C2)N3C)c1` (stereo not given), the “activity change, negative = inhibition” value was inactive: 2.59%.
`O=C(c1cc([N+](=O)[O-])ccc1Cl)N1CCc2ccccc21` was tested, and the Potency was inconclusive [inhibitor, single point].
`C=CCNC(=O)c1ccc(CSc2nc3ccccc3s2)cc1` was tested, and the Potency was inconclusive [inhibitor, single point].
With `O=C(Nc1cccc(F)c1)NC1CCCCCCC1` the Potency was inconclusive [inhibitor, partial curve, poor fit].
`O=C(Nc1cc(C(F)(F)F)ccc1Cl)c1ccc(NC(=O)C(F)(F)F)cc1` was tested, and the Potency was inconclusive [inhibitor, single point].
For `O=S(=O)(Nc1cc(S(=O)(=O)N2CCOCC2)ccc1NCC1CCCO1)c1ccc(F)cc1` (stereo not given), the Potency was inconclusive [inhibitor, full curve, poor fit].
For `COC(=O)N1C(=O)[C@@](c2ccccc2)(C2CCCC2)N1C(=O)OC`, the Potency was inconclusive [inhibitor, partial curve].
`COc1ccc(CC(=O)N2CCN=C2SCc2ccc([N+](=O)[O-])cc2)cc1` was tested, and the Potency was inconclusive [inhibitor, single point].
`CCOC(=O)COc1ccc(/C=C2/C(=O)NN(c3ccc(F)cc3)C2=O)cc1OC` was tested, and the Potency was inconclusive [inhibitor, full curve, poor fit].
In the case of `COCCCNC(NC(=O)c1ccc(Cl)cc1)C(Cl)(Cl)Cl` (stereo not given), the Potency is reported as inconclusive [inhibitor, partial curve, poor fit].
In the case of `CCN(CC(=O)Nc1ccc(NC(C)=O)cc1)C(=O)c1ccccc1CCc1ccccc1`, the Potency is reported as inconclusive [inhibitor, single point].
For `CCOC(=O)c1[nH]c(C)c(C(=O)OCC(=O)NC(C)c2ccc(F)cc2)c1C` (stereo not given), the Potency was inconclusive [inhibitor, full curve, poor fit].
For `CN(Cc1ccccc1)Cc1nc2c(c(=O)n(C)c(=O)n2C)n1Cc1ccc(F)cc1`, the Potency was inconclusive [inhibitor, single point].
For `Cn1c(-c2ccc(F)cc2)cnc1NCc1ccc(F)cc1`, the Potency was inconclusive [inhibitor, partial curve, poor fit].
`Cc1ccc2nc(-c3ccncc3)cc(C(=O)Nc3ccc4c(c3)OCCO4)c2c1` was tested, and the Potency was inconclusive [inhibitor, partial curve, poor fit].
In the case of `COc1ccc(N2C(c3ccsc3)=Cc3cc4c(cc3C2c2c[nH]c3ccccc23)OCO4)cc1` (stereo not given), the “activity change, negative = inhibition” value is reported as inactive: -26.7%.
With `CC1=C(C(=O)OC2CCCC2)C(c2ccccc2Cl)CC(=O)N1` (stereo not given) the Potency was inconclusive [inhibitor, partial curve, poor fit].
For `CCCCCC(=O)N1C[C@H](O)[C@@H](n2cc(-c3ccc(F)cc3)nn2)C[C@@H]1c1ccc(Cl)cc1`, the Potency was active: 10 µM.
In the case of `CCOc1ccc(S(=O)(=O)N2CCN(CC)CC2)cc1NC(=O)c1ccccc1F`, the Potency is reported as inconclusive [inhibitor, partial curve, poor fit].
For `O=C(NCC1CCN(Cc2ccccc2F)CC1)Nc1cc(F)ccc1F`, the Potency was inconclusive [inhibitor, single point].
In the case of `COc1cc(CN2CCC(C)CC2)ccc1OCc1ccccc1`, the Potency is reported as inconclusive [inhibitor, partial curve, poor fit].
`Cc1ccc(OCC(=O)Nc2ccccc2N2CCCC2)c(C)c1` was tested, and the Potency was inconclusive [inhibitor, partial curve, poor fit].
`COc1ccc(/C(C)=N/Nc2ccccc2Cl)c(O)c1` was tested, and the Potency was inconclusive [inhibitor, single point].
`O=C(CCOc1ccccc1)Nc1ccnn1C1CCN(CCc2ccccc2)CC1` was tested, and the Potency was inconclusive [inhibitor, single point].
In the case of `O=C1C=C(/C=C/c2ccccc2)C[C@@H](c2ccc3c(c2)OCO3)C1`, the Potency is reported as inconclusive [inhibitor, single point].
With `Cc1ccc(NC(=O)C(=O)NCCc2c[nH]c3ccccc23)cc1C` the “activity change, negative = inhibition” value was inactive: -14.6%.
`CC1CCN(S(=O)(=O)c2cccc(C(=O)N(Cc3ccccc3)c3ccccn3)c2)CC1` was tested, and the Potency was inconclusive [inhibitor, single point].
`CCc1cccc2c(C(=O)C(NCCCOC)c3ccccc3)c[nH]c12` (stereo not given) was tested, and the Potency was inconclusive [inhibitor, single point].
In the case of `COc1cccc(NC(=O)c2ccc(NC(=O)C(C)C)cc2)c1`, the “activity change, negative = inhibition” value is reported as inactive: -26.1%.
With `Cc1ccc(-c2nc3cc(Cl)ccc3o2)cc1NC(=O)COc1ccc(F)cc1` the “activity change, negative = inhibition” value was inactive: 8.05%.
With `CC(=O)N1CC(C)Sc2ccc(S(=O)(=O)NC3CCCCC3C)cc21` (stereo not given) the Potency was inconclusive [inhibitor, single point].
`Cc1ccc(-c2cc(C(=O)NCC(c3ccccc3)N(C)C)c3ccccc3n2)o1` (stereo not given) was tested, and the Potency was inconclusive [inhibitor, single point].
With `Cc1ccc(NC(=O)Nc2ccc(F)c(Cl)c2)cc1` the Potency was inconclusive [inhibitor, full curve].
`Cc1cccc(N2CCN(C3(c4ccccc4)C(=O)c4ccccc4C3=O)CC2C)c1` (stereo not given) was tested, and the Potency was inconclusive [inhibitor, single point].
For `Cc1ccc(C)c(NC(=S)N/N=C2/CCCCc3ccccc32)c1`, the Potency was inconclusive [inhibitor, partial curve, poor fit].
`O=c1[nH]c(CN2CCN(C/C=C/c3ccccc3)CC2)nc2cc(Cl)ccc12` was tested, and the “activity change, negative = inhibition” value was inactive: 0%.
For `O=C(CCN1CCN(c2ccccn2)CC1)Nc1ccc(F)cc1`, the “activity change, negative = inhibition” value was inactive: -22.3%.
For `CC12CCC(C/C1=N/NC(=O)Nc1ccccc1)C2(C)C` (stereo not given), the Potency was inconclusive [inhibitor, full curve, poor fit].
`Cc1ccnc(SCC(=O)N2CCc3ccccc32)n1` was tested, and the “activity change, negative = inhibition” value was inactive: 3.52%.
In the case of `CN1CCN(c2ccc(S(=O)(=O)Nc3ccccc3)cc2[N+](=O)[O-])CC1`, the Potency is reported as inconclusive [inhibitor, partial curve].
In the case of `Cc1ccc(N(C)C(=O)C2CCCN(c3ncnc4c3nc3n4CCCCC3)C2)cc1C` (stereo not given), the “activity change, negative = inhibition” value is reported as inactive: 5.06%.
With `O=C(Nc1ccncc1)c1cccc(S(=O)(=O)N2CCc3ccccc32)c1` the Potency was inconclusive [inhibitor, partial curve, poor fit].
With `c1ccc(-c2cc(NCCN3CCCCC3)c3ccccc3n2)cc1` the Potency was inconclusive [inhibitor, partial curve, poor fit].
In the case of `COc1ccc(OC)c(CCNC(=O)CCc2cn(C)c3ccccc23)c1`, the Potency is reported as inconclusive [inhibitor, partial curve, poor fit].
With `Cc1ccc([N+](=O)[O-])c(OCCN2CCc3ccccc3C2)c1` the Potency was inconclusive [inhibitor, partial curve, poor fit].
In the case of `Cc1ccccc1NC(=O)CSc1nc(N)c2c3c(sc2n1)CSC(C)(C)C3`, the Potency is reported as inconclusive [inhibitor, single point].
With `Cc1cccc(N2CCN(C(=O)c3oc4ccc(Br)cc4c3C)CC2)c1C` the Potency was inconclusive [inhibitor, single point].
`CC(CCc1ccccc1)NS(=O)(=O)c1ccccc1F` (stereo not given) was tested, and the Potency was inconclusive [inhibitor, partial curve, poor fit].
With `COc1ccc(-c2noc(=O)[nH]2)cc1` the Potency was inconclusive [inhibitor, single point].
For `O=c1c([N+](=O)[O-])c(N2CCOCC2)c2ccccc2n1Cc1ccccc1`, the Potency was inconclusive [inhibitor, single point].
In the case of `O=C(CCCc1ccccc1)Nc1ccccc1C(F)(F)F`, the Potency is reported as inconclusive [inhibitor, single point].
With `Oc1ccc(Nc2nc(-c3ccccc3)nc3ccccc23)cc1` the activity change, negative = inhibition was inconclusive: -85.1% [inhibitor].
For `c1ccc2c3c([nH]c2c1)C(C1CCCCC1)N(Cc1ncc[nH]1)CC3` (stereo not given), the Potency was inconclusive [inhibitor, single point].
`CCc1cccc2c(C#N)cn(CC(=O)NCc3ccco3)c12` was tested, and the Potency was inconclusive [inhibitor, single point].
In the case of `O=C(CC1C(=O)NCCN1C(=O)Nc1ccccc1)Nc1cccc(C(F)(F)F)c1` (stereo not given), the Potency is reported as inconclusive [inhibitor, partial curve, poor fit].
